Measurements published in paper PMC6602471.
This is one part of the list. At the low end of the ranking the order means little.

biological target: T1, ETS1 (UniProt P14921); test: custom PBM; settings: custom protein-binding microarray; buffer, salt, pH and temperature not stated; high values mean tight binding; double strand, one strand shown
T1 sequence: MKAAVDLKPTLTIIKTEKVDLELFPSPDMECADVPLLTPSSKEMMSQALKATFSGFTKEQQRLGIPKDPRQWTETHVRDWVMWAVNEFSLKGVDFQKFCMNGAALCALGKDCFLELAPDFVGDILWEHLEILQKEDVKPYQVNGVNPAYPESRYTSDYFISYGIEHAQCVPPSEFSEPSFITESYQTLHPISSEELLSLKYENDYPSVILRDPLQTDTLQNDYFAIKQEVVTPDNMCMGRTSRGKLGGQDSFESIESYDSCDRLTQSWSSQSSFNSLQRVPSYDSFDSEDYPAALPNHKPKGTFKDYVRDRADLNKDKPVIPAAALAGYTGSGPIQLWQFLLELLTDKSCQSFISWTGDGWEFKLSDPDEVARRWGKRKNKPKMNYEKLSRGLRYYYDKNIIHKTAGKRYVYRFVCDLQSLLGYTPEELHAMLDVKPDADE

Sequence	binding signal (log fluorescence intensity)
CAGCATAGGACTTCTTCCCTGAAGCAATTGATAACGGTCTTGATTCGCTTGACGCTGCTG	8.34
CGGAAATGTCGTAAACGTCGGATATCCGGTTCTTCTGTCTTGATTCGCTTGACGCTGCTG	12.1
CACAATTTTTACAGTAATGTAGCACGCGTAACTCCTGTCTTGATTCGCTTGACGCTGCTG	8.15
GGAAAAAGGCCCAGGGTAACACCGGAAGCGGGCTTAGTCTTGATTCGCTTGACGCTGCTG	10.8
GTGTAAAGGATCCCATCCAACACACGTGTTAAAATGGTCTTGATTCGCTTGACGCTGCTG	8.15
GGTAAAAGGCCCAGGGTAACACCGGAAGTGGGCTTAGTCTTGATTCGCTTGACGCTGCTG	11.9
CAGCATAAGACTTCTTCCCTGAAGCAATTGATAACCGTCTTGATTCGCTTGACGCTGCTG	8.27
GGAAAAAGGTCCAGGGTAACACCGGAAGTGGGCTTAGTCTTGATTCGCTTGACGCTGCTG	12
TACTGACTTATATATGCGAATCCACATGAATAGACCGTCTTGATTCGCTTGACGCTGCTG	8.2
CGGAGGTGTCGTAAACGTCGGATATCCGGTTCTTCTGTCTTGATTCGCTTGACGCTGCTG	11.7
CGGAAGTGTCGTAGACGTCGGATATCCGGTTCTTCTGTCTTGATTCGCTTGACGCTGCTG	11.7
CACTGACTTATATATGCGAATGCACATGAATAGACCGTCTTGATTCGCTTGACGCTGCTG	8.35
TAGTGACTTATATATGCGAATGCACATGAATAGACCGTCTTGATTCGCTTGACGCTGCTG	8.36
TAAAGGGAAGACGGTTGTGATAGTTCCGGGTATTAAGTCTTGATTCGCTTGACGCTGCTG	8.58
CCCAATTTTTACAGTAATGTAGCACGCGTAACTCCTGTCTTGATTCGCTTGACGCTGCTG	8.1
GCTGCTGCGGAGCATACCCCACCGGATGTGACCCCGGTCTTGATTCGCTTGACGCTGCTG	10.2
GATTAATTTCTGCCCTTATTCGCACGTGCCATAACCGTCTTGATTCGCTTGACGCTGCTG	8.22
TAAAGGGAAGACGGTTGTGGTAGTTTCGGGTATTAAGTCTTGATTCGCTTGACGCTGCTG	8.03
TAAAGGGAAGACGGTTGTGGTAGTTCCGGGCATTAAGTCTTGATTCGCTTGACGCTGCTG	8.59
TACTGACTTATATATGCGAATGCACATAAATAGACCGTCTTGATTCGCTTGACGCTGCTG	8.11
TACTGAGTTATATATGCGAATGCACATGAATAGACCGTCTTGATTCGCTTGACGCTGCTG	8.26

Sequence	binding signal (log fluorescence intensity)
TGTCGGGTATGGGAATGTAGATCACGTGAATGAAAAGTCTTGATTCGCTTGACGCTGCTG	8.09
GATTAATTTCTGCCCTTATTCGCACGTGCCGTAACAGTCTTGATTCGCTTGACGCTGCTG	8.34
TGTCGGCTAAGGGAATGTAGATCACGTGAATGAAAAGTCTTGATTCGCTTGACGCTGCTG	8.31
GTGTATAGGATCCCATCCAACACACGTGTTAAATTGGTCTTGATTCGCTTGACGCTGCTG	8.29
GTGTATAGGATCCCATCCAACACAGGTGTTAAAATGGTCTTGATTCGCTTGACGCTGCTG	8.15
TCCGGCTACCAGCTCCACCCACTTTAGGCCTTGTAGGTCTTGATTCGCTTGACGCTGCTG	8.2
CGGAAGTGTGGTAAACGTCGGATATCCGGTTCTTCTGTCTTGATTCGCTTGACGCTGCTG	11.5
CTGGGACTTGACGCAACTCTGCCACGTGGGTCGTTTGTCTTGATTCGCTTGACGCTGCTG	8.25
CACAATATTTACAGTAATGTAGCACGCGTAACTCCTGTCTTGATTCGCTTGACGCTGCTG	8.19
TAAAGGGAAGACGGTTGTGGTAGTGCCGGGTATTAAGTCTTGATTCGCTTGACGCTGCTG	8.44
CAGCATAGGACTTCTTCCCTGAAGCAAGTGATAACCGTCTTGATTCGCTTGACGCTGCTG	8.47
CTGGGACTTGACCCAACTCTCCCACGTGGGTCGTTTGTCTTGATTCGCTTGACGCTGCTG	8.38
CACAATTTTTACAGTAATGTAGCACGCGTAATTCCTGTCTTGATTCGCTTGACGCTGCTG	8.4
TCCTGACTTATATATGCGAATGCACATGAATAGACCGTCTTGATTCGCTTGACGCTGCTG	8.13
TACTGCCTTATATATGCGAATGCACATGAATAGACCGTCTTGATTCGCTTGACGCTGCTG	8.22
CACAATTTTTACAGTAATGTAGCACGCGTAACTCTTGTCTTGATTCGCTTGACGCTGCTG	8.3
TGTCGGGTAAGGGAATGTAGATCACCTGAATGAAAAGTCTTGATTCGCTTGACGCTGCTG	8.08
GATTAATTTCTGCCCTTATTCGCACGTGCCATAGCAGTCTTGATTCGCTTGACGCTGCTG	8.17
CAGCATAGGACTTCTACCCTGAAGCAATTGATAACCGTCTTGATTCGCTTGACGCTGCTG	8.18
TAAAGGGAATACGGTTGTGGTAGTTCCGGGTATTAAGTCTTGATTCGCTTGACGCTGCTG	8.37
TCCGGCTACCAGCTCCACCCACTTCAGGCCTTGAAGGTCTTGATTCGCTTGACGCTGCTG	8.28

Sequence	binding signal (log fluorescence intensity)
TAAAGGGAAGACGGTTGTGGTAGTTCCGGGTATTGAGTCTTGATTCGCTTGACGCTGCTG	8.54
CAGCATAGGACTTCTTCCCTGAAGCAATTTATAACCGTCTTGATTCGCTTGACGCTGCTG	8.4
CTGGGACTTTACCCAACTCTGCCACGTGGGTCGTTTGTCTTGATTCGCTTGACGCTGCTG	8.13
TGAAGGGAAGACGGTTGTGGTAGTTCCGGGTATTAAGTCTTGATTCGCTTGACGCTGCTG	8.51
TGTCGCGTAAGGGAATGTAGATCACGTGAATGAAAAGTCTTGATTCGCTTGACGCTGCTG	8.06
GATTAATTTCGGCCCTTATTCGCACGTGCCATAACAGTCTTGATTCGCTTGACGCTGCTG	8.19
TGTCGGGTAAGGGAATGTAGATCACGTGACTGAAAAGTCTTGATTCGCTTGACGCTGCTG	8.33
TAAAGGGTAGACGGTTGTGGTAGTTCCGGGTATTAAGTCTTGATTCGCTTGACGCTGCTG	8.38
GATTAATTTCTGCCCTTATTCGCACGTGCCATAACTGTCTTGATTCGCTTGACGCTGCTG	8.23
GATTAATTTCTGCCCTTATTCGCACGTACCATAACAGTCTTGATTCGCTTGACGCTGCTG	8.13
GTGTATAGGACCCCATCCAACACACGTGTTAAAATGGTCTTGATTCGCTTGACGCTGCTG	8.26
CACAATTTTTACCGTAATGTAGCACGCGTAACTCCTGTCTTGATTCGCTTGACGCTGCTG	8.41
GTGTATAGGATCCAATCCAACACACGTGTTAAAATGGTCTTGATTCGCTTGACGCTGCTG	8.16
CACAATTTTTACAGTAGTGTAGCACGCGTAACTCCTGTCTTGATTCGCTTGACGCTGCTG	8.33
GCTGCTGCGGTGCATACCCCACCGGATGTGCCCCCGGTCTTGATTCGCTTGACGCTGCTG	9.95
GATTAATTTCCGCCCTTATTCGCACGTGCCATAACAGTCTTGATTCGCTTGACGCTGCTG	13.9
TAAAGGGAAGACGGTTGTGGTAGTTCCGGGTAATAAGTCTTGATTCGCTTGACGCTGCTG	8.57
CAGCATAGGAATTCTTCCCTGAAGCAATTGATAACCGTCTTGATTCGCTTGACGCTGCTG	8.42
CTGGGACTTGACCCAACTCTGCCACGTGGGTCGTGTGTCTTGATTCGCTTGACGCTGCTG	8.17
GGTGCTGCGGTGCATACCCCACCGGATGTGACCCCGGTCTTGATTCGCTTGACGCTGCTG	10.2
GTGTTTAGGATCCCATCCAACACACGTGTTAAAATGGTCTTGATTCGCTTGACGCTGCTG	8.22

Sequence	binding signal (log fluorescence intensity)
TGTCGGGTAAGGCAATGTAGATCACGTGAATGAAAAGTCTTGATTCGCTTGACGCTGCTG	8.1
TCCGGCTACCAGGTCCACCCACTTCAGGCCTTGTAGGTCTTGATTCGCTTGACGCTGCTG	8.34
TACTGACCTATATATGCGAATGCACATGAATAGACCGTCTTGATTCGCTTGACGCTGCTG	8.12
GGAAAAAGGCCCAGGGTAACAACGGAAGTGGGCTTAGTCTTGATTCGCTTGACGCTGCTG	9.4
TGTCGGGTAAGGGAATGTAGATCCCGTGAATGAAAAGTCTTGATTCGCTTGACGCTGCTG	8.3
TACTGACTTATATATGCGATTGCACATGAATAGACCGTCTTGATTCGCTTGACGCTGCTG	8.26
GATTAATTTCTGCCATTATTCGCACGTGCCATAACAGTCTTGATTCGCTTGACGCTGCTG	8.29
CAGCATAGCACTTCTTCCCTGAAGCAATTGATAACCGTCTTGATTCGCTTGACGCTGCTG	8.23
GGAAAAAGGCCCAGGGTAACACAGGAAGTGGGCTTAGTCTTGATTCGCTTGACGCTGCTG	9.75
TACTGACTTATATATCCGAATGCACATGAATAGACCGTCTTGATTCGCTTGACGCTGCTG	8.35
GCTGCTGCGGTGCATTCCCCACCGGATGTGACCCCGGTCTTGATTCGCTTGACGCTGCTG	10.2
TGTCGGGTAAGGGAATGTAGACCACGTGAATGAAAAGTCTTGATTCGCTTGACGCTGCTG	8.19
CAGCATAGGACTTCCTCCCTGAAGCAATTGATAACCGTCTTGATTCGCTTGACGCTGCTG	12.7
CAGCATAGGACTTCTTCCCCGAAGCAATTGATAACCGTCTTGATTCGCTTGACGCTGCTG	8.16
CACAATTTTTACAGTAATGTAGCACGCGTCACTCCTGTCTTGATTCGCTTGACGCTGCTG	8.11
TGTCGGGTAAGGGTATGTAGATCACGTGAATGAAAAGTCTTGATTCGCTTGACGCTGCTG	8.34
GATGCTGCGGTGCATACCCCACCGGATGTGACCCCGGTCTTGATTCGCTTGACGCTGCTG	10.4
CTGGGACTTGACCCAACTCTGCCACGTGGGTCGTCTGTCTTGATTCGCTTGACGCTGCTG	8.26
